Laboratory results published in US20240209078A1 (Amgen, published 2024).

B1: CL1 9-G4 CC × 5B1.05 × scFc × FL 4-E9 CC × 5B1.05 (bispecific antibody)
chain: QVQLVQSGAEVKKPGASVKVSCKASGYTFTDYYMHWVRQAPGQCLEWMGWINPNSGGPNYAQKFQGRVTMTRDTSISTAHMELSRLRSDDTAVYYCAREKHAVAGIGFDYWGQGTLVTVSSGGGGSGGGGSGGGGSDIQMTQSPSSVSASVGDRVTITCQASQDISNYLNWYQQKPGKAPKLLIYAASSLESGVPSRFSGSGSGTDFTLTISSLQPEDFATYYCQQANSFPLTFGCGTKVDIKSGGGGSEVQLVESGGGLVQPGGSLKLSCAASGFTFSKYAMNWVRQAPGKGMEWVARIRSKYNNYATYYAEAVKGRFTISRDDSKNTVYLQMNNLKTEDTAVYYCVRAGNFGSSYISYWAYWGQGTLVTVSSGGGGSGGGGSGGGG[sequence of about 120 residues omitted]GGGSGGGGSGGGGS[sequence of human IgG1 Fc with R292C N297G V302C (EU numbers) omitted]GGGGSGGGGSGGGGSGGGGSGGGGSGGGGS[sequence of human IgG1 Fc with R292C N297G V302C (EU numbers) omitted]GGGGSGGGGSGGGGSQVTLKESGPTLVKPTETLTLTCTVSGFSFRNARMGVSWIRQPPGKCLEWLAHIFSNDEKSYSTSLKSRLTISKDTSKSQVVLTMTNMDPVDTATYFCARVPEYSSGWYRFDYWGQGTLVTVSSGGGGSGGGGSGGGGSDIQMTQSPSSLSASVGDRVTISCRASQSIRSYLNWYQQKPGKAPKLLIYATSSLQGGVPSRFSGSGSGTDFTLTISSLQPEDFATYYCQQSYSTPFTFGCGTKVEIKSGGGGSEVQLVESGGGLVQPGGSLKLSCAASGFTFSKYAMNWVRQAPGKGMEWVARIRSKYNNYATYYAEAVKGRFTISRDDSKNTVYLQMNNLKTEDTAVYYCVRAGNFGSSYISYWAYWGQGTLVTVSSGGGGSGGGGSGGGG[sequence of about 120 residues omitted]
B2: MS 15-B12 CC × I2L × scFc × CH3 15-E11 CC × I2L (bispecific antibody)
chain: QVQLQESGPGLVKPSETLSLTCTVSGGSISSSSYFWGWIRQPPGKCLEWIGNIYYSGSSNYNPSLKSRVTISVDTSKNQFSLKLSSVTAADTAVYYCARLPRGDRDAFDIWGQGTMVTVSSGGGGSGGGGSGGGGSDIVMTQSPSSLSASVGDRVTITCRASQGISNYLAWYQQKPGKVPKLLIYAASTLQSGVPSRFSGSGSGTDFTLTISSLQPEDFATYYCQQSYSTPFTFGCGTKVEIKSGGGGSEVQLVESGGGLVQPGGSLKLSCAASGFTFNKYAMNWVRQAPGKGMEWVARIRSKYNNYATYYADAVKDRFTISRDDSKNTLYLQMNNLKTEDTAVYYCVRAGNFGSSYISYFAYWGQGTLVTVSSGGGGSGGGGSGGGGSQTVVTQEPSLTVSPGGTVTITCGSSTGAVTSGNYPNWIQKKPGQAPRGLIGGTKFLAPGTPARFSGSLEGGKAALTLSGVQPEDEAEYYCVLYYSNRWVFGSGTKLTVLGGGGSGGGGSGGGGS[sequence of human IgG1 Fc with R292C N297G V302C (EU numbers) omitted]GGGGSGGGGSGGGGSGGGGSGGGGSGGGGS[sequence of human IgG1 Fc with R292C N297G V302C (EU numbers) omitted]GGGGSGGGGSGGGGSQVQLVQSGAEVKKPGASVKVSCKASGYTFTNYWMNWVRQAPGQCLEWMGNIAYGVKGTNYNQKFQGRVTMTVDTSSSTAYMELSRLRSDDTAVYYCATRYFYVMDYWGQGTLVTVSSGGGGSGGGGSGGGGSDIQMTQSPSSLSASVGDRVTITCRASQDISNYLNWYQQKPGKVPKLLIYYTSRLHSGVPSRFSGSGSGTDFTLTISSLQPEDVATYYCVQYAQFPLTFGCGTKVEIKSGGGGSEVQLVESGGGLVQPGGSLKLSCAASGFTFNKYAMNWVRQAPGKGMEWVARIRSKYNNYATYYADAVKDRFTISRDDSKNTLYLQMNNLKTEDTAVYYCVRAGNFGSSYISYFAYWGQGTLVTVSSGGGGSGGGGSGGGGSQTVVTQEPSLTVSPGGTVTITCGSSTGAVTSGNYPNWIQKKPGQAPRGLIGGTKFLAPGTPARFSGSLEGGKAALTLSGVQPEDEAEYYCVLYYSNRWVFGSGTKLTVL
B3: MS 15-B12 CC × I2M2 × scFc × CH3 15-E11 CC × I2M2 (bispecific antibody)
chain: QVQLQESGPGLVKPSETLSLTCTVSGGSISSSSYFWGWIRQPPGKCLEWIGNIYYSGSSNYNPSLKSRVTISVDTSKNQFSLKLSSVTAADTAVYYCARLPRGDRDAFDIWGQGTMVTVSSGGGGSGGGGSGGGGSDIVMTQSPSSLSASVGDRVTITCRASQGISNYLAWYQQKPGKVPKLLIYAASTLQSGVPSRFSGSGSGTDFTLTISSLQPEDFATYYCQQSYSTPFTFGCGTKVEIKSGGGGSEVQLVESGGGLVQPGGSLKLSCAASGFTFNKYAINWVREAPGKGLEWVARIRSKYNNYATYYADAVKDRFTISRDDSKNTAYLQMNNLKTEDTAVYYCVRNANFGTSYISYFAYWGQGTLVTVSSGGGGSGGGGSGGGG[sequence of about 120 residues omitted]GGGSGGGGSGGGGS[sequence of human IgG1 Fc with R292C N297G V302C (EU numbers) omitted]GGGGSGGGGSGGGGSGGGGSGGGGSGGGGS[sequence of human IgG1 Fc with R292C N297G V302C (EU numbers) omitted]GGGGSGGGGSGGGGSQVQLVQSGAEVKKPGASVKVSCKASGYTFTNYWMNWVRQAPGQCLEWMGNIAYGVKGTNYNQKFQGRVTMTVDTSSSTAYMELSRLRSDDTAVYYCATRYFYVMDYWGQGTLVTVSSGGGGSGGGGSGGGGSDIQMTQSPSSLSASVGDRVTITCRASQDISNYLNWYQQKPGKVPKLLIYYTSRLHSGVPSRFSGSGSGTDFTLTISSLQPEDVATYYCVQYAQFPLTFGCGTKVEIKSGGGGSEVQLVESGGGLVQPGGSLKLSCAASGFTFNKYAINWVREAPGKGLEWVARIRSKYNNYATYYADAVKDRFTISRDDSKNTAYLQMNNLKTEDTAVYYCVRNANFGTSYISYFAYWGQGTLVTVSSGGGGSGGGGSGGGG[sequence of about 120 residues omitted]
B4: CL1 9-G4 CC × 5B1.09 × scFc × FL 4-E9 CC × 5B1.09 (bispecific antibody)
chain: QVQLVQSGAEVKKPGASVKVSCKASGYTFTDYYMHWVRQAPGQCLEWMGWINPNSGGPNYAQKFQGRVTMTRDTSISTAHMELSRLRSDDTAVYYCAREKHAVAGIGFDYWGQGTLVTVSSGGGGSGGGGSGGGGSDIQMTQSPSSVSASVGDRVTITCQASQDISNYLNWYQQKPGKAPKLLIYAASSLESGVPSRFSGSGSGTDFTLTISSLQPEDFATYYCQQANSFPLTFGCGTKVDIKSGGGGSEVQLVESGGGLVQPGGSLKLSCAASGFTFSKYAMNWVRQAPGKGMEWVARIRSKYNNYATYYADAVKGRFTISRDDSKNTVYLQMNNLKTEDTAVYYCVRAGNFGKSYISYFAYWGQGTLVTVSSGGGGSGGGGSGGGGSQTVVTQEPSLTVSPGGTVTLTCGSSTGAVTSGNYPNWVQKKPGQAPRGLIGGTKFLAPGTPARFSGSLSGGKAALTLSGVQPEDEAEYYCVLYYSNRWVFGGGTKLTVLGGGGSGGGGSGGGGS[sequence of human IgG1 Fc with R292C N297G V302C (EU numbers) omitted]GGGGSGGGGSGGGGSGGGGSGGGGSGGGGS[sequence of human IgG1 Fc with R292C N297G V302C (EU numbers) omitted]GGGGSGGGGSGGGGSQVTLKESGPTLVKPTETLTLTCTVSGFSFRNARMGVSWIRQPPGKCLEWLAHIFSNDEKSYSTSLKSRLTISKDTSKSQVVLTMTNMDPVDTATYFCARVPEYSSGWYRFDYWGQGTLVTVSSGGGGSGGGGSGGGGSDIQMTQSPSSLSASVGDRVTISCRASQSIRSYLNWYQQKPGKAPKLLIYATSSLQGGVPSRFSGSGSGTDFTLTISSLQPEDFATYYCQQSYSTPFTFGCGTKVEIKSGGGGSEVQLVESGGGLVQPGGSLKLSCAASGFTFSKYAMNWVRQAPGKGMEWVARIRSKYNNYATYYADAVKGRFTISRDDSKNTVYLQMNNLKTEDTAVYYCVRAGNFGKSYISYFAYWGQGTLVTVSSGGGGSGGGGSGGGGSQTVVTQEPSLTVSPGGTVTLTCGSSTGAVTSGNYPNWVQKKPGQAPRGLIGGTKFLAPGTPARFSGSLSGGKAALTLSGVQPEDEAEYYCVLYYSNRWVFGGGTKLTVL

Key:
Assay in all cases: cell-based or functional assay
[1] = molecular target: CD3ε chain (human, UniProt P07766 23-126, limits assumed)
[2] = molecular target: human CD3ε chain (human, UniProt P07766)
[3] = molecular target: human CDH3 (human, UniProt P22223 108-829)
[4] = molecular target: human MSLN (human, UniProt Q13421 37-598)

Binder | Activity reduction of single CD3 binding domain in molecule compared to high affinity binding domain I2C with KD 1.2E-08M [1] | Activity reduction of single CD3 binding domain in molecule (I2L) compared to high affinity binding domain I2C [2] | EC50 GSU KO MSLN (cytotoxicity; cells CDH3+, MSLN-) [3] | EC50 GSU wt (cytotoxicity; cells CDH3+, MSLN+) [3] | fold selectivity gap, GSU KO MSLN against GSU wt [3] | EC50 GSU KO CDH3 (cytotoxicity; cells CDH3-, MSLN+) [4] | EC50 GSU wt (cytotoxicity; cells CDH3+, MSLN+) [4] | fold selectivity gap, GSU KO CDH3 against GSU wt [4] | Activity reduction of single CD3 binding domain in molecule (I2M2) compared to high affinity binding domain I2C [2]
B1 | ~145 fold |  |  |  |  |  |  |  | 
B2 |  | ~98 fold | 71.2 pM | 0.66 pM | 108 fold | 19.6 pM | 0.66 pM | 30 fold | 
B3 |  |  | 1.7 pM | 0.11 pM | 16 fold | 2 pM | 0.11 pM | 18 fold | ~32 fold
B4 | ~92 fold |  |  |  |  |  |  |  | 
